Substitutions are numbered along the chain they refer to; changes in the protein carry UniProt numbers. Some of the results follow.

Here are results for 20 molecules from article PMC9911399, “Two distinct binding modes provide the RNA-binding protein RbFox with extraordinary sequence specificity”.

Sequences and labels used below:
T1: RBFOX1 RRM RbFoxmut (Fox-RRM*) (Homo sapiens, UniProt Q9NWB1 109-208, R118D;E147R;N151S;E152T)
T1 sequence: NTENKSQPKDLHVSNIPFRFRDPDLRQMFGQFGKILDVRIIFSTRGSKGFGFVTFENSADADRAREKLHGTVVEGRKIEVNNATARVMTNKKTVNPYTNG

B1: GCCAUGA (DNA:RNA)
RNA: GGGAGACCGGAAUUCAGAUUGUCCGCCAUGAUUAAAUCCCGUCGUAGCCACCA
DNA 1: CAATCTGAATTCCGGTCTCCC
DNA 2: TGGTGGCTACGACGGGATT
B2: GAGCCCU (DNA:RNA)
RNA: B1 RNA with C26A, C27G, A28C, U29C, G30C, A31U
DNA 1: CAATCTGAATTCCGGTCTCCC
DNA 2: TGGTGGCTACGACGGGATT
B3: AGAAAGU (DNA:RNA)
RNA: B1 RNA with G25A, C26G, C27A, U29A, A31U
DNA 1: CAATCTGAATTCCGGTCTCCC
DNA 2: TGGTGGCTACGACGGGATT
B4: GUCGAAU (DNA:RNA)
RNA: B1 RNA with C26U, A28G, U29A, G30A, A31U
DNA 1: CAATCTGAATTCCGGTCTCCC
DNA 2: TGGTGGCTACGACGGGATT
B5: GUCCGAU (DNA:RNA)
RNA: B1 RNA with C26U, A28C, U29G, G30A, A31U
DNA 1: CAATCTGAATTCCGGTCTCCC
DNA 2: TGGTGGCTACGACGGGATT
B6: AUCAAUC (DNA:RNA)
RNA: B1 RNA with G25A, C26U, U29A, G30U, A31C
DNA 1: CAATCTGAATTCCGGTCTCCC
DNA 2: TGGTGGCTACGACGGGATT
B7: UAUCAAC (DNA:RNA)
RNA: GGGAGACCGGAAUUCAGAUUGUCCUAUCAACUUAAAUCCCGUCGUAGCCACCA
DNA 1: CAATCTGAATTCCGGTCTCCC
DNA 2: TGGTGGCTACGACGGGATT
B8: ACACAAU (DNA:RNA)
RNA: B7 RNA with U25A, A26C, U27A, C31U
DNA 1: CAATCTGAATTCCGGTCTCCC
DNA 2: TGGTGGCTACGACGGGATT
B9: UUAUUGC (DNA:RNA)
RNA: B1 RNA with G25U, C26U, C27A, A28U, A31C
DNA 1: CAATCTGAATTCCGGTCTCCC
DNA 2: TGGTGGCTACGACGGGATT
B10: UUACACC (DNA:RNA)
RNA: B7 RNA with A26U, U27A, A30C
DNA 1: CAATCTGAATTCCGGTCTCCC
DNA 2: TGGTGGCTACGACGGGATT
B11: UAAUCAU (DNA:RNA)
RNA: B7 RNA with U27A, C28U, A29C, C31U
DNA 1: CAATCTGAATTCCGGTCTCCC
DNA 2: TGGTGGCTACGACGGGATT
B12: AGUGAGC (DNA:RNA)
RNA: B7 RNA with U25A, A26G, C28G, A30G
DNA 1: CAATCTGAATTCCGGTCTCCC
DNA 2: TGGTGGCTACGACGGGATT
B13: AUCAAGC (DNA:RNA)
RNA: B1 RNA with G25A, C26U, U29A, A31C
DNA 1: CAATCTGAATTCCGGTCTCCC
DNA 2: TGGTGGCTACGACGGGATT
B14: AGAGGCU (DNA:RNA)
RNA: GGGAGACCGGAAUUCAGAUUGUCCAGAGGCUUUAAAUCCCGUCGUAGCCACCA
DNA 1: CAATCTGAATTCCGGTCTCCC
DNA 2: TGGTGGCTACGACGGGATT
B15: CAUGACG (DNA:RNA)
RNA: B7 RNA with U25C, C28G, A30C, C31G
DNA 1: CAATCTGAATTCCGGTCTCCC
DNA 2: TGGTGGCTACGACGGGATT
B16: CCAUGUU (DNA:RNA)
RNA: B14 RNA with A25C, G26C, G28U, C30U
DNA 1: CAATCTGAATTCCGGTCTCCC
DNA 2: TGGTGGCTACGACGGGATT
B17: AGCUCCU (DNA:RNA)
RNA: B14 RNA with A27C, G28U, G29C
DNA 1: CAATCTGAATTCCGGTCTCCC
DNA 2: TGGTGGCTACGACGGGATT
B18: CUAUCCA (DNA:RNA)
RNA: B14 RNA with A25C, G26U, G28U, G29C, U31A
DNA 1: CAATCTGAATTCCGGTCTCCC
DNA 2: TGGTGGCTACGACGGGATT
B19: AGUUAAC (DNA:RNA)
RNA: B7 RNA with U25A, A26G, C28U
DNA 1: CAATCTGAATTCCGGTCTCCC
DNA 2: TGGTGGCTACGACGGGATT
B20: GGGAUCU (DNA:RNA)
RNA: B14 RNA with A25G, A27G, G28A, G29U
DNA 1: CAATCTGAATTCCGGTCTCCC
DNA 2: TGGTGGCTACGACGGGATT

The target of this assay is T1, RBFOX1 RRM RbFoxmut (Fox-RRM*). The assay is described as follows: EMSA; HiTS-Eq, 1 nM pool, 10 min; buffer printed only for the single-RNA assays: 10 mM Tris pH 7.5, 150 mM NaCl, 3.4 mM EDTA, 0.001% NP-40, 30 C. The following applies: tags: His6 N-terminal (pET28a); label: 5' 32P. In outline:
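Relative association constants, normalised to the cognate motif, were derived by comparing read counts of each RNA species with those of the control reaction. The RNA sequenced was the free fraction, separated by 8% native PAGE after a 10 min equilibration in 50 µL of 1 nM 5′-radiolabelled RNA (7 randomized nucleotides) with increasing concentrations of purified wild-type or mutant RbFox RRM.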
A general note: Mobility shift assays separate free from complexed probe on a gel.
Turning to B1, the binding signal is 0.134 KA relative to UGCAUGU.

B2: the binding signal is 0.0513 KA relative to UGCAUGU.

In the case of B3, the binding signal is 0.112 KA relative to UGCAUGU.

With B4, the binding signal is 0.108 KA relative to UGCAUGU.

Turning to B5, the binding signal was 0.118 KA relative to UGCAUGU.

Turning to B6, the binding signal was 0.0606 KA relative to UGCAUGU.

As for B7, the binding signal was 0.0614 KA relative to UGCAUGU.

Regarding B8, the binding signal is 0.064 KA relative to UGCAUGU.

Turning to B9, the binding signal is 0.128 KA relative to UGCAUGU.

Regarding B10, the binding signal was 0.0797 KA relative to UGCAUGU.

For B11, the binding signal was 0.0651 KA relative to UGCAUGU.

For B12, the binding signal is 0.131 KA relative to UGCAUGU.

B13: the binding signal is 0.0904 KA relative to UGCAUGU.

For the molecule B14, the binding signal is 0.0973 KA relative to UGCAUGU.

Regarding B15, the binding signal is 0.0944 KA relative to UGCAUGU.

For the molecule B16, the binding signal was 0.104 KA relative to UGCAUGU.

As for B17, the binding signal is 0.0484 KA relative to UGCAUGU.

With B18, the binding signal was 0.119 KA relative to UGCAUGU.

On to B19, for which the binding signal was 0.0835 KA relative to UGCAUGU.

As for B20, the binding signal is 0.17 KA relative to UGCAUGU.
